Source: PubChem BioAssay (NCI)
Values joined by “and” are separate entries in the source; they are usually repeats but may differ in a detail not shown here. Equal entries are not always repeated.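 Interpolation was linear, between the two tested concentrations surrounding the appropriate level; five concentrations were tested over 48 hours in 96-well plates. At the GI50, growth is halved. TGI: total growth inhibition.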

Tested on: NCI-H322M lung
Assay: inhibition of tumour cell growth, NCI panel, 48 h

Which results are given for `Cc1ccc(/C(=C/C=C(C#N)C#N)Sc2ccccn2)cc1`?
GI50: 12.7 µM; TGI: 28.8 µM

Which GI50 does the source give for `CC1(C)Cc2c(Br)c(Br)c(Br)c(OCC(O)CN3CCOCC3)c2O1` (centres undefined) here?
The GI50 was 14.3 µM.

And the TGI?
Its TGI is 28.4 µM.

What does the source list for `Oc1ccc(CN(Cc2ccc(C(F)(F)F)cc2)Cc2ccc(O)c3ncccc23)c2cccnc12`?
GI50: 0.186 µM; TGI: > 100 µM

With `COC(=O)[C@]12CC=C3O[C@@H]4OC5(CCCCC5)O[C@@H]4[C@H]3C1C(=O)C=CC2=O` (some centres undefined) as the molecule, how does the TGI read?
Its TGI is 45.5 µM.

With `N#Cc1c(N2CCN(c3ccc([N+](=O)[O-])cc3)CC2)[n+](=O)c2ccc(Cl)cc2n1[O-]` as the molecule, how does the TGI read?
The TGI was > 46.2 µM.

For `CC1=CC2CC(C)C1(C)CCc1ccoc12` (centres undefined), which TGI is on record?
Its TGI is > 100 µM.

How did the TGI turn out when `O=C1O[C@]2(c3ccccc3)C(c3ccccc3)=C[C@]2(C(=O)c2ccccc2)C1=O` was run?
The TGI was > 100 µM.

Which TGI does the source give for `NC(=O)NCCCC(NC(=O)OCCCCCn1ccc(=O)[nH]c1=O)C(=O)O` (centres undefined) here?
The TGI was > 100 µM.

With `Cc1cc2nc3c4cccc(O)c4n(CCN(C)C)c3nc2cc1C` as the molecule, how does the GI50 read?
The GI50 was 2.54 µM.

What about the TGI of the same molecule?
The TGI was 9.1 µM.

`N/C(=N\c1nc2ccccc2s1)NC(=O)Nc1cccc2ccccc12` was tested. Which GI50 did it give?
The GI50 was 0.637 µM.

And the TGI?
Its TGI is > 100 µM.

With `CCC(C)C1(O)OC2CC3(C)OC(=CC3=O)/C(C)=C\C3OC(=O)C1(C)C32` (centres undefined) as the molecule, how does the TGI read?
The TGI was 67.8 µM.

For `CC1CCC2(CC1)N=C1CCC(C)CC1C1(CCC(C)CC1)N2` (centres undefined), which TGI is on record?
The TGI was > 100 µM.

Which GI50 does the source give for `Cc1ccc(F)cc1NC(=O)c1cc(Cl)ccc1Nc1ccccc1` here?
Its GI50 is > 100 µM.

What about the TGI of the same molecule?
The TGI was > 100 µM.

For `COC(=O)c1cccc(C(=O)OC)c1`, which TGI is on record?
The TGI was > 100 µM.

How did the TGI turn out when `COc1cc(C2S/C(=C/c3ccccc3)C(=O)N2c2cccc([N+](=O)[O-])c2)cc(OC)c1OC` (centres undefined) was run?
Its TGI is > 100 µM.

What does the source list for `Nc1ccc(-n2c(=O)oc3ccc(Cl)cc3c2=O)c(Cl)c1`?
GI50: 0.326 µM; TGI: 2.34 µM

With `O=C1C(N=Nc2ccc(-c3nc4ccccc4[nH]3)cc2)NC(=S)N1c1ccccc1` (centres undefined) as the molecule, how does the TGI read?
Its TGI is > 100 µM.

With `CC(C)CCC[C@@H](C)[C@H]1CCC2C3=CCC4C(=O)C=CC(=O)C4C3CC[C@@]21C` (some centres undefined) as the molecule, how does the GI50 read?
Its GI50 is 0.361 µM.

What about the TGI of the same molecule?
Its TGI is 2.18 µM.

`O=C(O)c1ccc(Nc2nc3ccccc3nc2C(=O)O)cc1` was tested. Which TGI did it give?
Its TGI is > 100 µM.

How did the TGI turn out when `CC(C)=CC1CC(C)C2(CCC3(C)CC4C(C(=O)CC4(C)O)/C(C=O)=C\CC32)O1` (centres undefined) was run?
Its TGI is 1.23 µM.

Which TGI does the source give for `CN1CCC(n2[nH]c(-c3ccccc3)c(Cc3ccccc3)c2=O)CC1` here?
The TGI was > 100 µM.

How did the TGI turn out when `CC(=O)NC1=C(C)C(=O)c2c(nc3n2CC[C@H]3OC(C)=O)C1=O` was run?
Its TGI is 10.1 µM.

For `Cc1cc(C)c2c(N)c3cccc(C)c3nc2n1`, which GI50 is on record?
The GI50 was 2.39 µM.

What about the TGI of the same molecule?
The TGI was 11.2 µM.

With `CC(=N\N=C\c1ccccn1)/C(C)=N/N=C(C)/C(C)=N/N=C(C)/C(C)=N/N=C/c1ccccn1` as the molecule, how does the TGI read?
The TGI was > 100 µM.

Which TGI does the source give for `Cn1c(=O)oc2cc(C3CCC(=O)N3Cc3ccc(Cl)cc3)ccc21` (centres undefined) here?
Its TGI is > 100 µM.

Which TGI does the source give for `COc1cc(CNc2nc3cc(C(F)(F)F)ccc3nc2C)cc(OC)c1OC` here?
Its TGI is 62.6 µM.

`COc1ccc(-c2ccccc2)cc1-c1c(Nc2cc(Cl)cc(Cl)c2O)c(=O)c1=O` was tested. Which GI50 did it give?
Its GI50 is 1.54 µM.

What about the TGI of the same molecule?
Its TGI is > 50 µM.

For `NC(=O)CS(=O)CC(N)C(=O)O` (centres undefined), which TGI is on record?
Its TGI is > 100 µM.

What does the source list for `C=C(C)[C@@H]1CC[C@]2(C(=O)NCCNCCNCCN)CC[C@]3(C)[C@H](CC[C@@H]4[C@@]5(C)CCC(=O)C(C)(C)[C@@H]5CC[C@]43C)[C@@H]12`?
GI50: 7.32 µM; TGI: 14 µM

`COc1cc2c(cc1Cl)n([O-])c(C#N)c(N1CCN(c3ccc([N+](=O)[O-])cc3)CC1)[n+]2=O` was tested. Which TGI did it give?
Its TGI is > 100 µM.

How did the TGI turn out when `COc1ccc(C2(C3c4cc(OC)c(OC)cc4CCN3C)SCCCS2)cc1O` (centres undefined) was run?
Its TGI is > 100 µM.

For `C/C=C\C(CC(=O)NCCC1CN(C(=O)c2ccccc2)c2ccccc21)CC(=O)OC` (centres undefined), which TGI is on record?
Its TGI is > 100 µM.

With `CCC(=O)c1ccc2c(c1)N(CCCN1CCN(CCO)CC1)c1ccccc1S2` as the molecule, how does the GI50 read?
Its GI50 is 17.9 µM.

What about the TGI of the same molecule?
Its TGI is 32.9 µM.

How did the GI50 turn out when `COc1cc2ncn(-c3cc(OCc4ccccc4S(C)(=O)=O)c(C#N)s3)c2cc1OC` was run?
The GI50 was > 25 µM.

What about the TGI of the same molecule?
The TGI was > 25 µM.

With `Oc1cc(Cl)ccc1Cc1ccc(Cl)cc1O` as the molecule, how does the GI50 read?
Its GI50 is 17.2 µM.

And the TGI?
Its TGI is 37.9 µM.

`O=c1[nH]c2ccccc2c2oc(-c3ccccc3)nc12` was tested. Which TGI did it give?
The TGI was 51 µM.

How did the TGI turn out when `CC1(C)N[P+]2(Nc3ccccc3O2)OC1=O` (centres undefined) was run?
The TGI was > 100 µM.

For `O=C(C#Cc1cn(C2CC(O)C(CO)O2)c(=O)[nH]c1=O)c1ccccc1` (centres undefined), which TGI is on record?
The TGI was > 100 µM.

Which TGI does the source give for `CS(=O)(=O)O.[Ag]` here?
Its TGI is 31.8 µM.

For `COc1cc2c(c(OC)c1OC)-c1ccc(SC)c(=O)cc1C(CC(=O)Oc1cccc(C#N)c1)C2` (centres undefined), which TGI is on record?
The TGI was > 100 µM.

For `O=C1C[C@H](c2ccccc2)C2(C(=O)c3ccccc3C2=O)[C@H](c2ccccc2)C1`, which TGI is on record?
Its TGI is > 100 µM.

`CCOC(=O)C(C)c1nc2cc(N3CCN(C)CC3)c(F)cc2[nH]c1=O` (centres undefined) was tested. Which TGI did it give?
The TGI was > 100 µM.

For `C/C(N=Nc1nc2ccccc2o1)=C1/C=CC=CN1O`, which TGI is on record?
Its TGI is 73.3 µM.

What does the source list for `N=C(N)c1ccc(-c2ccc(-c3ccc(F)cc3)o2)o1`?
GI50: 1.6 µM; TGI: 3.17 µM

For `CO/C(=N\N=C\c1cccc(C(F)(F)F)c1)c1ccncc1`, which TGI is on record?
The TGI was > 100 µM.

Which GI50 does the source give for `COc1cc2c3c(n(CCCNCCNCCCN)c(=O)c2cc1OC)-c1cc2c(cc1C3=O)OCO2` here?
Its GI50 is 2.37 µM.

And the TGI?
The TGI was 7.34 µM.

For `CN1C(=O)C(c2c[nH]c3ccccc23)=C(c2c(-c3c[nH]c4ccccc34)[nH]c3ccccc23)C1=O`, which GI50 is on record?
The GI50 was 2.38 µM.

And the TGI?
Its TGI is 6.6 µM.

`NC1=C(Cl)C(=O)c2ccccc2C1=O` was tested. Which TGI did it give?
Its TGI is 20.9 µM.

With `Cc1ccc(Oc2nc3ccccc3cc2-c2nnc(Cn3c(COc4ccccc4)nc4ccccc43)o2)cc1` as the molecule, how does the GI50 read?
The GI50 was 14.9 µM.

And the TGI?
Its TGI is 34.4 µM.

Which GI50 does the source give for `O=C1OCC2=C1C(c1cccc(C(F)(F)F)c1)c1cc3c(cc1N2CCO)CCC3` (centres undefined) here?
Its GI50 is 0.492 µM.

What about the TGI of the same molecule?
Its TGI is 9.44 µM.

`COc1ccc2c(c1)CCCC1C3=NCCC3(C)CSC21` (centres undefined) was tested. Which TGI did it give?
Its TGI is > 100 µM.

`OCc1ccc(Oc2c3ccccc3nc3occc23)cc1` was tested. Which GI50 did it give?
Its GI50 is 13.7 µM.

And the TGI?
The TGI was 40.5 µM.

`C=C1C(=O)O[C@H]2C[C@@H]1CCC1(C)OC1CC/C(C)=C/CC[C@H]2C` (some centres undefined) was tested. Which GI50 did it give?
Its GI50 is 18.2 µM.

And the TGI?
The TGI was 35.7 µM.

For `COc1ccc2c(c1)C(=O)c1c-2n(CCCN2CCOCC2)c(=O)c2cc([N+](=O)[O-])ccc12`, which GI50 is on record?
Its GI50 is < 0.01 µM.

And the TGI?
The TGI was 8.45 µM.

What does the source list for `COc1ccc2[nH]cc(-c3nc(-c4c[nH]c5ccncc45)cs3)c2c1`?
GI50: 1.85 µM; TGI: 4.2 µM

For `COc1ccc(C2=C(c3cc(OC)c(OC)c(OC)c3)C(=O)OC2)cc1OC`, which GI50 is on record?
Its GI50 is 0.0432 µM.

And the TGI?
The TGI was 12.1 µM.

Which TGI does the source give for `CN(c1ccccc1Cl)S(=O)(=O)c1ccccc1[N+](=O)[O-]` here?
Its TGI is > 100 µM.

Which TGI does the source give for `CC(C)C(C/C=C1\CC(CO)(COC(=O)CC(C(C)C)C(C)C)OC1=O)C(C)C` (centres undefined) here?
The TGI was 26.3 µM.

With `COc1cc(/C=C/C(=O)OC[C@H](Br)[C@H](OC(C)=O)c2ccc3c(c2)OCO3)cc(OC)c1OC` as the molecule, how does the TGI read?
The TGI was > 100 µM.

With `c1cncc(CNc2ncn[nH]2)c1` as the molecule, how does the TGI read?
The TGI was > 100 µM.

For `COc1ccc(-c2csc3c2-n2cccc2C3=O)cc1O`, which GI50 is on record?
Its GI50 is 0.0738 µM.

And the TGI?
The TGI was > 100 µM.

For `COc1ccc(C2=CN3CCC[C@H]3C=C2c2cc(O)c(OC)c(OC)c2)cc1OC`, which TGI is on record?
Its TGI is 0.039 µM and 0.0113 µM.

Which TGI does the source give for `O=C(O)c1ccc(C2C3C=CC(C3)C2[N+](=O)[O-])cc1` (centres undefined) here?
Its TGI is > 100 µM.

`COc1ccc(/C=N/n2c(Cc3ccc(Cl)cc3)n[nH]c2=O)c(OC)c1` was tested. Which TGI did it give?
The TGI was > 100 µM.

For `O=C(c1ccccc1)N1C(=S)N(c2ccc([N+](=O)[O-])cc2)C(=Nc2ccccc2)C1=Nc1ccccc1`, which TGI is on record?
The TGI was > 100 µM.

Which GI50 does the source give for `Cc1cn2c(=O)n(c1=O)Cc1ccccc1C2` here?
The GI50 was > 100 µM.

What about the TGI of the same molecule?
Its TGI is > 100 µM.

With `COc1ccc2c(c1)-c1nn(CCN(C)C)c3ccc(C(=O)NCCCN(C)CCCNC(=O)c4ccc5c6c(nn5CCN(C)C)-c5cc(OC)ccc5Nc46)c(c13)N2` as the molecule, how does the TGI read?
Its TGI is 0.757 µM.

How did the TGI turn out when `COC(=O)C1=Cc2c(cc(OC)c(OC)c2OC)[C@H](c2ccc(OC)c(OC)c2OC)C1C(=O)OC` (some centres undefined) was run?
The TGI was > 100 µM.
